# Assay results published in the supplement of paper PMC8728848.
# The other results are listed elsewhere or left out.
# B1: SAG3 (Toxoplasma gondii), Q9BJ39 (protein)
# chain: MQLWRRRAAGPASLGRQSLPLGCFFAAFGLCVLSAILGTGERGLFVAAGNSRRKITYFGTLTQKAPNWYRCSSTRAKEEVVGHVTLNKEHPDMTIECVDDGLGGEFLPLEGARSSYPRVCHIDAKDQDDCERNRGFLTDYIPGAKQYWYKIEKVEQNGEQSVLYKFTVPWILLPPAKQRYKVGCRYPNHEYCFVEVTVEPTPPMVEGKRVTCGYSESGPVNLEVDLSKNANFIEIRCGEQHHPQPSTYTLQYCSGDSVDPQKCSPQSLTNIFYDYSSSWWKGKLNGPDGATLTIPPGGFPEEDKSFLVGCSLTVDGPPFCNVKVRVAGNPRKWERGGGGHPGSGGLQPGTDGETQAGTGSSAGASSRMASVALAFLLGLLVHVAA
# Tests used:
# Assay in all cases: glycan array binding signal (z-score within array); higher = stronger binding
# Conditions in all cases: glycan notation: IUPAC condensed, linker removed
# [1] = target: Gal6S(b1-4)Glc
# Method in brief: (§1)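 Columns mapping to the same glycan were averaged after glycan names were converted to IUPAC-condensed notation. The data come from 3228 arrays in the Consortium for Functional Glycomics database, limited to those with an available protein sequence. Binding is reported as a within-array Z-score averaged across arrays of one protein sequence and across linkers.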
# [2] = target: Gal6S(b1-4)Glc6S
# Method in brief: as §1
# [3] = target: Gal6S(b1-4)GlcNAc
# Method in brief: as §1
# [4] = target: Gal6S(b1-4)GlcNAc6S
# Method in brief: as §1
# [5] = target: GalNAc(a1-3)Gal
# Method in brief: as §1
# [6] = target: GalNAc(a1-3)GalNAc
# Method in brief: as §1
# [7] = target: GalNAc(a1-3)GalNAc(a1-3)Gal(a1-4)Gal(b1-4)GlcNAc
# Method in brief: as §1
# [8] = target: GalNAc(b1-3)Gal
# Method in brief: as §1
# [9] = target: GalNAc(b1-3)Gal(a1-4)Gal(b1-4)GlcNAc
# Method in brief: as §1
# [10] = target: GalNAc(b1-3)Gal(a1-4)Gal(b1-4)GlcNAc(b1-3)Gal(b1-4)Glc
# Method in brief: as §1
# [11] = target: GalNAc(b1-3)Gal(a1-6)Gal(b1-4)Glc
# Method in brief: as §1
# [12] = target: GalNAc(b1-3)GalNAc
# Method in brief: as §1
# [13] = target: GalNAc(b1-4)GlcNAc
# Method in brief: as §1
# [14] = target: GalNAc(b1-4)GlcNAc(b1-2)Man(a1-3)[GalNAc(b1-4)GlcNAc(b1-2)Man(a1-6)]Man(b1-4)GlcNAc(b1-4)GlcNAc
# Method in brief: as §1
# [15] = target: Glc(a1-4)Glc
# Method in brief: as §1
# [16] = target: Glc(a1-6)Glc(a1-6)Glc
# Method in brief: as §1
# [17] = target: Glc(b1-4)Glc
# Method in brief: as §1
# [18] = target: Glc(b1-6)Glc
# Method in brief: as §1
# [19] = target: GlcA(b1-3)Gal
# Method in brief: as §1
# [20] = target: GlcA(b1-3)GlcNAc
# Method in brief: as §1
# [21] = target: GlcA(b1-6)Gal
# Method in brief: as §1
# [22] = target: GlcNAc(a1-3)Gal(b1-4)GlcNAc
# Method in brief: as §1
# [23] = target: GlcNAc(a1-4)Gal(b1-3)GlcNAc
# Method in brief: as §1
# [24] = target: GlcNAc(a1-4)Gal(b1-4)GalNAc
# Method in brief: as §1
# [25] = target: GlcNAc(a1-4)Gal(b1-4)GlcNAc
# Method in brief: as §1
# [26] = target: GlcNAc(a1-4)Gal(b1-4)GlcNAc(b1-3)Gal(b1-4)Glc
# Method in brief: as §1
# [27] = target: GlcNAc(a1-4)Gal(b1-4)GlcNAc(b1-3)Gal(b1-4)GlcNAc
# Method in brief: as §1
# [28] = target: GlcNAc(a1-4)Gal(b1-4)GlcNAc(b1-3)Gal(b1-4)GlcNAc(b1-3)Gal(b1-4)GlcNAc
# Method in brief: as §1
# [29] = target: GlcNAc(a1-4)Gal(b1-4)GlcNAc(b1-3)Gal(b1-4)[Fuc(a1-3)]GlcNAc(b1-3)Gal(b1-4)[Fuc(a1-3)]GlcNAc
# Method in brief: as §1
# [30] = target: GlcNAc(a1-6)Gal(b1-4)GlcNAc
# Method in brief: as §1
# [31] = target: GlcNAc(b1-2)Gal(b1-3)GalNAc
# Method in brief: as §1
# [32] = target: GlcNAc(b1-2)Man(a1-3)[GlcNAc(b1-2)Man(a1-6)]Man(b1-4)GlcNAc(b1-4)GlcNAc
# Method in brief: as §1
# [33] = target: GlcNAc(b1-2)Man(a1-3)[GlcNAc(b1-2)Man(a1-6)]Man(b1-4)GlcNAc(b1-4)[Fuc(a1-6)]GlcNAc
# Method in brief: as §1
# [34] = target: GlcNAc(b1-2)[GlcNAc(b1-4)]Man(a1-3)[GlcNAc(b1-2)Man(a1-6)]Man(b1-4)GlcNAc(b1-4)GlcNAc
# Method in brief: as §1
# [35] = target: GlcNAc(b1-3)Gal
# Method in brief: as §1
# [36] = target: GlcNAc(b1-3)Gal(b1-3)GalNAc
# Method in brief: as §1
# [37] = target: GlcNAc(b1-3)Gal(b1-4)Glc
# Method in brief: as §1
# [38] = target: GlcNAc(b1-3)Gal(b1-4)GlcNAc
# Method in brief: as §1
binder,measurement,setting,value
B1,glycan array binding signal (z-score),[1],-0.036
same,glycan array binding signal (z-score),[2],0.161
same,glycan array binding signal (z-score),[3],-0.021
same,glycan array binding signal (z-score),[4],-0.075
same,glycan array binding signal (z-score),[5],-0.389
same,glycan array binding signal (z-score),[6],-0.218
same,glycan array binding signal (z-score),[7],0.301
same,glycan array binding signal (z-score),[8],0.003
same,glycan array binding signal (z-score),[9],-0.317
same,glycan array binding signal (z-score),[10],0.029
same,glycan array binding signal (z-score),[11],-0.162
same,glycan array binding signal (z-score),[12],-0.03
same,glycan array binding signal (z-score),[13],-0.437
same,glycan array binding signal (z-score),[14],0.581
same,glycan array binding signal (z-score),[15],-0.209
same,glycan array binding signal (z-score),[16],-0.156
same,glycan array binding signal (z-score),[17],0.326
same,glycan array binding signal (z-score),[18],-0.281
same,glycan array binding signal (z-score),[19],-0.281
same,glycan array binding signal (z-score),[20],-0.372
same,glycan array binding signal (z-score),[21],-0.241
same,glycan array binding signal (z-score),[22],0.097
same,glycan array binding signal (z-score),[23],-0.321
same,glycan array binding signal (z-score),[24],0.196
same,glycan array binding signal (z-score),[25],0.067
same,glycan array binding signal (z-score),[26],-0.133
same,glycan array binding signal (z-score),[27],-0.116
same,glycan array binding signal (z-score),[28],0.115
same,glycan array binding signal (z-score),[29],-0.01
same,glycan array binding signal (z-score),[30],-0.311
same,glycan array binding signal (z-score),[31],-0.576
same,glycan array binding signal (z-score),[32],-0.352
same,glycan array binding signal (z-score),[33],0.719
same,glycan array binding signal (z-score),[34],0.578
same,glycan array binding signal (z-score),[35],-0.293
same,glycan array binding signal (z-score),[36],-0.112
same,glycan array binding signal (z-score),[37],-0.058
same,glycan array binding signal (z-score),[38],-0.366
